Measurements reported in the supplement of paper PMC6206098.
± gives the uncertainty stated by the source. The sequences are guide strands of siRNAs; only the seed at positions 2 to 7 varies.

Key:
3LL = assay: cell viability relative to siNT1 control; higher = less toxic; conditions: concentration: 10 nM; 96 h; Mus musculus;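 also: Luminescence-based viability of cells reverse transfected in 384-well plates with lipid-complexed siRNAs built on a non-toxic 19mer backbone whose passenger strand carries 2′-O-methyl groups at positions 1 and 2, triplicates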
H460 = assay: cell viability relative to lipid-only control; HeyA8 human ovarian and H460 human lung cancer; M565 mouse liver and 3LL mouse lung cancer; siNT1 is a non-toxic control siRNA; higher = less toxic; conditions: concentration: 10 nM; 96 h; Homo sapiens
HeyA8 = assay: as above; conditions: concentration: 10 nM; 96 h; Homo sapiens
M565 = assay: as above; conditions: concentration: 10 nM; 96 h; Mus musculus
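For cell viability relative to lipid-only control in this document: reverse lipid transfection in 384-well plates, in triplicate, of duplexes on a non-toxic 19mer backbone with passenger strand 2′-O-methylated at positions 1 and 2, luminescence viability read-out.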

Row | Sequence | cell viability (3LL) | cell viability (H460) | cell viability (HeyA8) | cell viability (M565)
1 | UGGCUUCACAUGUAAACCAAA | 54.3 ± 3.7% | 30 ± 3.3% | 8.58 ± 1.6% | 32 ± 11%
2 | UGGCUUGACAUGUAAACCAAA | 43.3 ± 4.2% | 44.6 ± 5.4% | 34 ± 1.7% | 12.7 ± 4.7%
3 | UGGCUUUACAUGUAAACCAAA | 79.8 ± 8.1% | 63.8 ± 10% | 38.4 ± 0.68% | 24.2 ± 4.1%
4 | UGGGAAAACAUGUAAACCAAA | 99.3 ± 7.5% | 72 ± 16% | 60.6 ± 5.1% | 64.1 ± 2.6%
5 | UGGGAACACAUGUAAACCAAA | 90.6 ± 18% | 64 ± 8.1% | 70.7 ± 6.8% | 64.5 ± 9.2%
6 | UGGGAAGACAUGUAAACCAAA | 77.9 ± 4.5% | 71.8 ± 12% | 59.9 ± 4% | 25.6 ± 9.5%
7 | UGGGAAUACAUGUAAACCAAA | 76.4 ± 4.8% | 56.9 ± 2.4% | 57.3 ± 3.7% | 42.4 ± 2.5%
8 | UGGGACAACAUGUAAACCAAA | 83.7 ± 6.4% | 48.4 ± 8.8% | 85.5 ± 0.96% | 17.3 ± 7.3%
9 | UGGGACCACAUGUAAACCAAA | 16 ± 3.8% | 67.9 ± 17% | 84.1 ± 4.2% | 6.03 ± 1.3%
10 | UGGGACGACAUGUAAACCAAA | 97.7 ± 6% | 54.6 ± 5.2% | 90.8 ± 9.2% | 38.2 ± 5%
11 | UGGGACUACAUGUAAACCAAA | 43.2 ± 3.5% | 39.3 ± 4.7% | 47.8 ± 5% | 14.6 ± 4.2%
12 | UGGGAGAACAUGUAAACCAAA | 11.8 ± 3.3% | 21.5 ± 0.97% | 2.29 ± 0.22% | 28.7 ± 4.6%
13 | UGGGAGCACAUGUAAACCAAA | 23.3 ± 6.1% | 24.4 ± 2.2% | 4.13 ± 1.3% | 18.6 ± 3%
14 | UGGGAGGACAUGUAAACCAAA | 35 ± 8.8% | 17.7 ± 0.36% | 8.18 ± 0.81% | 27.2 ± 6.4%
15 | UGGGAGUACAUGUAAACCAAA | 11.5 ± 0.2% | 12 ± 0.22% | 2.47 ± 0.33% | 14.4 ± 1.5%
16 | UGGGAUAACAUGUAAACCAAA | 87.2 ± 11% | 53.6 ± 3.2% | 38.8 ± 2.9% | 41.9 ± 4.9%
17 | UGGGAUCACAUGUAAACCAAA | 26.5 ± 2.8% | 12.9 ± 2.8% | 2.8 ± 0.47% | 20.5 ± 2.3%
18 | UGGGAUGACAUGUAAACCAAA | 53 ± 9.9% | 39.9 ± 3.5% | 12.1 ± 0.26% | 23 ± 8.8%
19 | UGGGAUUACAUGUAAACCAAA | 25.8 ± 7.1% | 61.5 ± 5.2% | 30.1 ± 1.1% | 25.6 ± 5.6%
20 | UGGGCAAACAUGUAAACCAAA | 70.3 ± 4.2% | 19.9 ± 1.4% | 2.06 ± 0.34% | 32.7 ± 5.5%

Row | Sequence | cell viability (3LL) | cell viability (H460) | cell viability (HeyA8) | cell viability (M565)
21 | UGGGCACACAUGUAAACCAAA | 25.3 ± 6.3% | 30 ± 3.2% | 11.6 ± 2.3% | 15.5 ± 5.2%
22 | UGGGCAGACAUGUAAACCAAA | 13.5 ± 3.2% | 10.7 ± 1.9% | 1.28 ± 0.12% | 9.95 ± 2.5%
23 | UGGGCAUACAUGUAAACCAAA | 52.3 ± 8.9% | 23.1 ± 5.1% | 2.09 ± 0.068% | 30.5 ± 4.8%
24 | UGGGCCAACAUGUAAACCAAA | 62.7 ± 4% | 20.9 ± 3.6% | 5.5 ± 0.21% | 16.2 ± 2.7%
25 | UGGGCCCACAUGUAAACCAAA | 13.3 ± 4.6% | 37.9 ± 3% | 24.2 ± 1.8% | 11.5 ± 1.5%
26 | UGGGCCGACAUGUAAACCAAA | 32.2 ± 3.4% | 16.4 ± 5% | 3.33 ± 0.35% | 22.6 ± 4.1%
27 | UGGGCCUACAUGUAAACCAAA | 26.5 ± 5.2% | 16.1 ± 3.8% | 3.05 ± 0.19% | 11.8 ± 2%
28 | UGGGCGAACAUGUAAACCAAA | 48.1 ± 9.6% | 9.45 ± 2.8% | 1.47 ± 0.055% | 29.8 ± 2.7%
29 | UGGGCGCACAUGUAAACCAAA | 52.4 ± 12% | 17.8 ± 1.8% | 2.61 ± 0.7% | 22.7 ± 0.88%
30 | UGGGCGGACAUGUAAACCAAA | 10.6 ± 0.93% | 7.67 ± 0.62% | 1.62 ± 0.04% | 18.1 ± 4.8%
31 | UGGGCGUACAUGUAAACCAAA | 83.1 ± 4% | 17.5 ± 1.6% | 2.36 ± 7.2% | 27.3 ± 1.1%
32 | UGGGCUAACAUGUAAACCAAA | 48.5 ± 14% | 28.2 ± 2% | 5.29 ± 1.5% | 30.5 ± 2.1%
33 | UGGGCUCACAUGUAAACCAAA | 16.1 ± 1.6% | 24.9 ± 3.1% | 5.52 ± 0.71% | 16.7 ± 6.5%
34 | UGGGCUGACAUGUAAACCAAA | 4.74 ± 0.73% | 11.6 ± 0.82% | 1.43 ± 5.3% | 7.74 ± 3.7%
35 | UGGGCUUACAUGUAAACCAAA | 40.6 ± 11% | 32.1 ± 7.1% | 7.36 ± 0.7% | 24.4 ± 8.8%
36 | UGGGGAAACAUGUAAACCAAA | 55.9 ± 48% | 60 ± 4.2% | 20 ± 3.3% | 39.1 ± 5.4%
37 | UGGGGACACAUGUAAACCAAA | 30.9 ± 4.3% | 33.3 ± 3% | 9.99 ± 0.62% | 17.6 ± 2.8%
38 | UGGGGAGACAUGUAAACCAAA | 58.3 ± 15% | 16.8 ± 2.6% | 7.92 ± 0.52% | 28.4 ± 5.2%
39 | UGGGGAUACAUGUAAACCAAA | 47.1 ± 35% | 34.2 ± 3.1% | 4.79 ± 0.9% | 19.5 ± 4.1%
40 | UGGGGCAACAUGUAAACCAAA | 7.69 ± 0.59% | 11.4 ± 0.82% | 1.71 ± 0.29% | 21.4 ± 2.5%

Row | Sequence | cell viability (3LL) | cell viability (H460) | cell viability (HeyA8) | cell viability (M565)
41 | UGGGGCCACAUGUAAACCAAA | 22.9 ± 2.9% | 11.5 ± 0.8% | 2.13 ± 0.24% | 22.5 ± 9.4%
42 | UGGGGCGACAUGUAAACCAAA | 15.3 ± 1.8% | 12.6 ± 3.1% | 2.17 ± 0.062% | 17.4 ± 2.6%
43 | UGGGGCUACAUGUAAACCAAA | 9.58 ± 2.5% | 13 ± 1.2% | 1.39 ± 0.15% | 17.8 ± 2.5%
44 | UGGGGGAACAUGUAAACCAAA | 41.9 ± 4.8% | 19.3 ± 3.8% | 2.69 ± 0.41% | 12.3 ± 4.9%
45 | UGGGGGCACAUGUAAACCAAA | 6.6 ± 3.6% | 8.02 ± 0.84% | 1.52 ± 0.12% | 7.44 ± 1.4%
46 | UGGGGGGACAUGUAAACCAAA | 81.5 ± 9.7% | 16.1 ± 0.49% | 4.65 ± 0.44% | 8.4 ± 2%
47 | UGGGGGUACAUGUAAACCAAA | 14.8 ± 7.1% | 5.49 ± 1% | 1.62 ± 0.32% | 9.78 ± 4.9%
48 | UGGGGUAACAUGUAAACCAAA | 38.2 ± 5.6% | 29.2 ± 3.7% | 11.7 ± 1.2% | 23.5 ± 6.3%
49 | UGGGGUCACAUGUAAACCAAA | 6.92 ± 0.71% | 28.4 ± 3.4% | 1.71 ± 0.4% | 11.6 ± 1.4%
50 | UGGGGUGACAUGUAAACCAAA | 7.74 ± 1% | 11.9 ± 2% | 2.78 ± 0.19% | 18.7 ± 7.9%
51 | UGGGGUUACAUGUAAACCAAA | 41.6 ± 2.3% | 31.2 ± 2.4% | 7.86 ± 0.65% | 22.7 ± 4.1%
52 | UGGGUAAACAUGUAAACCAAA | 71.4 ± 1.9% | 33.3 ± 4.8% | 31.2 ± 2.2% | 40.1 ± 8.6%
53 | UGGGUACACAUGUAAACCAAA | 90.5 ± 16% | 63.9 ± 11% | 31.7 ± 1.4% | 48.6 ± 11%
54 | UGGGUAGACAUGUAAACCAAA | 2.58 ± 0.82% | 18.3 ± 5.9% | 4.3 ± 0.55% | 18.8 ± 5.9%
55 | UGGGUAUACAUGUAAACCAAA | 54.8 ± 9.3% | 37.6 ± 3.8% | 24.5 ± 3% | 29 ± 4.4%
56 | UGGGUCAACAUGUAAACCAAA | 54.8 ± 20% | 34.6 ± 7.5% | 33.1 ± 6.5% | 16.8 ± 1.8%
57 | UGGGUCCACAUGUAAACCAAA | 19.8 ± 2.3% | 25.2 ± 2.1% | 8.1 ± 0.68% | 9.06 ± 1.3%
58 | UGGGUCGACAUGUAAACCAAA | 58.9 ± 8.7% | 18.1 ± 1.1% | 24.6 ± 1.5% | 36.7 ± 0.67%
59 | UGGGUCUACAUGUAAACCAAA | 17.3 ± 3.2% | 19.8 ± 2.4% | 7.4 ± 1.2% | 16 ± 2.9%
60 | UGGGUGAACAUGUAAACCAAA | 47.9 ± 5.3% | 9.51 ± 1.1% | 3.12 ± 0.19% | 25.7 ± 1.6%
